Laboratory results published in PubChem BioAssay AID1645882 (National Center for Advancing Translational Sciences (NCATS), 2021).
Screen size: about 16,000 compounds; about 120 (0.75%) were called active. About 4% were inconclusive and are not listed. The call rests on the fitted dose curve; in most records, active means well fitted inhibition curve with a large enough effect; inconclusive means small, poorly fitted or top-dose-only effect; inactive means no such curve, though single readings can be large or run the other way. Some of the results follow.

Target: Rap guanine nucleotide exchange factor 3 (Homo sapiens) (UniProt O95398)
UniProt O95398, sequence (O95398 whole entry, looked up): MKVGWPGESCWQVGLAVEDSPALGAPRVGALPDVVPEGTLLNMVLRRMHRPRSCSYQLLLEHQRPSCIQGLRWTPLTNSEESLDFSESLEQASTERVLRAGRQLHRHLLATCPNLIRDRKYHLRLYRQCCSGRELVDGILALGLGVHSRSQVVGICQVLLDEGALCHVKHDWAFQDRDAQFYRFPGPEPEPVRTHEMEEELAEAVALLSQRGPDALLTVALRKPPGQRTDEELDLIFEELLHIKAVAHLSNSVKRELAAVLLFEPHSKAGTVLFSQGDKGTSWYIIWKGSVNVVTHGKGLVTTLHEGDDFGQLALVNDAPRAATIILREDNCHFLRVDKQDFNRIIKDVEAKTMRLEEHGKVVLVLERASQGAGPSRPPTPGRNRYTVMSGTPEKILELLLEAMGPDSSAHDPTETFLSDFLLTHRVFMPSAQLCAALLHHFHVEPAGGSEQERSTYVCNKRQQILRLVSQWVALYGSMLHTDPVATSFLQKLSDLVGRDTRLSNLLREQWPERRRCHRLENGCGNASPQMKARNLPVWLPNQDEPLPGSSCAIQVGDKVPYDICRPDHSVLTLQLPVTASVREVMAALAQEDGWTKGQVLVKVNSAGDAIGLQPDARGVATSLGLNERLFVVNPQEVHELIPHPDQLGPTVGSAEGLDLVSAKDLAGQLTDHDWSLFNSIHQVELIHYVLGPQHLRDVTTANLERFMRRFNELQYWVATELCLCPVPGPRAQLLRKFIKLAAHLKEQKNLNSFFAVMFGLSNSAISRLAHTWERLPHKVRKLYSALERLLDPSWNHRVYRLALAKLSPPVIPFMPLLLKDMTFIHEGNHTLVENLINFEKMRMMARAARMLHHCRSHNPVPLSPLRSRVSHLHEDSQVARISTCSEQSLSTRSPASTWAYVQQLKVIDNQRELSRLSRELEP
Assay: Validation qHTS for antagonist of cAMP-regulated guanine nucleotide exchange factor 3 (EPAC1); further: nearly all actives have a fitted effect of over 75% in size;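 on activity change, negative = inhibition: plate controls were DMSO for no effect and ATA control for full effect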
Conditions: EPAC1 Rap1B-BODIPY-GDP exchange, fluorescence; series mostly up to 150 µM; activity change, negative = inhibition: at the top concentration
How it was run: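 Nucleotide exchange followed as fluorescence loss when BODIPY-GDP leaves Rap1B (480 nm excitation, 540 nm emission), read at 5 min intervals over 30 min. Reaction: 100 nM EPAC1, 250 nM RAP1B-BODIPY-GDP, 50 uM GDP; ATA and DMSO define normalization.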
Potency means the concentration at half of the fitted maximal effect.

Compound	activity change, negative = inhibition	Potency
CC(=O)N/N=C/c1ccc([N+](=O)[O-])o1	inactive: 26%	
Cc1noc(C)c1-c1ccc2ncnc(NCc3ccccc3)c2c1	inactive: 18.8%	
COc1ccc(-n2c(=O)c(-c3cc(F)cc(F)c3)nc3cncnc32)cc1	inactive: 13.5%	
CN(C)Cc1ccccc1-c1nccc(NCc2cccs2)n1	inactive: 24.1%	
C=CCN1CCc2nc(N)sc2CC1	inactive: 24.6%	
COC(=O)N1CCC2(CC1)CN(c1ccc(-c3ccccc3)cc1)C2	inactive: 4.19%	
c1cnc2c(-c3nccc4c3[nH]c3ccccc34)cccc2c1	inactive: -2.57%	
CCC1(C2CCN(Cc3cccc4ccccc34)CC2)NC(=O)N(Cc2ccc3c(c2)OCO3)C1=O (centres undefined)	inactive: -9.16%	
Cc1ccc(C(=O)Nc2cccc(-c3nc(CNC(=O)[C@@H]4C[C@@H](C)NC(=S)N4)c(C)o3)c2)s1	inactive: 3.59%	
CN(Cc1ccco1)c1nc(-c2ccoc2)nc2ccccc12	inactive: -2.54%	
c1ccc2c(NC3CC3)nc(-c3ccoc3)nc2c1	inactive: 9.84%	
CCOC(=O)O[C@]1(C(=O)COC(=O)CC)CC[C@H]2[C@@H]3CCC4=CC(=O)C=C[C@]4(C)[C@H]3[C@@H](O)C[C@@]21C	inactive: 6.95% [at 75.8 µM]	
COc1ccc(NC(=O)N2CC[C@@]3(CCCN(C(=O)c4cc(C(F)(F)F)cc(C(F)(F)F)c4)C3)C2)cc1	inactive: 13.8%	
O=C(c1cccc(N2CCCC2=O)c1)N1CCC(Oc2cccc(CN3CCN(c4ccccn4)CC3)c2)CC1	inactive: 13.5%	
NC(N)=NC(N)=NCCc1ccccc1	inactive	
COc1ccccc1-c1cc(N(C)Cc2ccco2)ncn1	inactive: -12.3%	
Cn1c(=O)c(-c2cccc(Cl)c2)nc2cncnc21	inactive: -2.57%	
Cc1cnc(SCC2CCCO2)nc1C1CCCN(C(=O)c2ccc(S(N)(=O)=O)cc2)C1 (centres undefined)	inactive: 0.839%	
C/C=C(\C)C(=O)OC1c2c(ccc3ccc(=O)oc23)OC(C)(C)C1OC(C)=O (centres undefined)	inactive: 15.6%	
CC(=O)NCCCS(=O)(=O)O	inactive: 7.65%	
COc1ccccc1-c1ccnc(-n2ncc(C(=O)NC3CCCN(Cc4ccccc4)C3)c2C)n1 (centres undefined)	inactive: 16.6%	
O=P(O)(O)O	inactive: -0.768%	

Compound	activity change, negative = inhibition	Potency
COc1ccc2c(c1OC)C(=O)O[C@@H]2[C@H]1c2c(cc3c(c2OC)OCO3)CCN1C	inactive	
COCCNc1ncnc2ccc(-c3c(C)noc3C)cc12	inactive: 10.3%	
COc1ccc(CNCC(O)COc2ccc3[nH]c(=O)ccc3c2)cc1OC (centres undefined)	inactive: 36.5%	
Cc1cccnc1-c1cccc2c1OC(CNC(=O)Cn1cncn1)C2 (centres undefined)	inactive: 10.4%	
Cc1oc(-c2ccccc2NC(=O)c2ccsc2)nc1CN(C)Cc1ccc2c(c1)CCCN2C	inactive: 3.32%	
O=C(c1csnn1)N1CCC2(CCCN(c3cccc(-c4ccccc4)c3)C2)CC1	inactive: 6.51%	
Cn1c(=O)c(-c2cccs2)nc2cnc(OCc3ccccc3)nc21	inactive: 8.37%	
O=S(=O)(c1ccccc1)N1CCC2(CC1)CN(Cc1nccs1)C2	inactive: -0.855%	
CC/C=C\C/C=C\C/C=C\CCCCCCCCCC(=O)O	inactive: 17.8% [at 15.3 µM]	
N#C/C(=C\c1ccc(-c2cc(Cl)ccc2Cl)o1)C(=O)Nc1cccc2ncccc12	inactive: 13% [at 75.8 µM]	
Cc1ccc(C)c(CN2C[C@H](Sc3ccccn3)C[C@H]2C(=O)Nc2ccc3sc(C)nc3c2)c1	inactive: 32.9%	
CN1CCN(c2ncnc3ccc(-c4ccc5c(c4)OCO5)cc23)CC1	inactive: 14.8%	
C[C@@H](CSc1ccccc1)CN1CC[C@H](O)CCC1=O	inactive: 10.4%	
N#Cc1cc2c(OCC(O)CN3CCN(C(c4ccccc4)c4ccccc4)CC3)cccc2[nH]1 (centres undefined)	inactive	
H-LVVYPWTQR-OH	inactive: -3.11% [at 15.3 µM]	
CC(C)(C)NCC(O)COc1cccc2c1CCC(=O)N2 (centres undefined)	inactive: 11.7% [at 75.8 µM]	
Cc1nc2cnc(N(C)C)nc2n(C[C@H]2CCCO2)c1=O	inactive: 6.52%	
O=C(NCC1Cc2cccc(-c3ccccn3)c2O1)c1cnn2cccnc12 (centres undefined)	inactive: -13.9%	
Cc1cnc(SCc2ccccn2)nc1C1CCCN(C(=O)c2ccc3[nH]c(C)c(C)c3c2)C1 (centres undefined)	inactive: 13%	
Cc1noc(C)c1-c1nc(N2CCN(C)CC2)c2ccccc2n1	inactive: 12.9%	
CN(Cc1ccco1)c1cc(-c2ccccc2C(F)(F)F)ncn1	inactive: 13.2%	
CC(C)C[C@H](NC(=O)[C@H](O)[C@H](N)Cc1ccccc1)C(=O)O	inactive: -1.22% [at 75.8 µM]	

Compound	activity change, negative = inhibition	Potency
CCC1CN(CC(=O)NC(c2ccccn2)C(F)(F)F)Cc2cc(OC)ccc2O1 (centres undefined)	inactive: 15.2%	
CC(=O)O[C@@]1(C(C)=O)CCC2C3C=C(C)C4=CC(=O)CCC4(C)C3CCC21C (some centres undefined)	inactive: -18.8%	
CN1CCC(=C2c3ccccc3CCc3cccnc32)CC1	inactive: 24%	
Oc1cc(O)c2c(c1)O[C@H](c1ccc(O)c(O)c1)[C@H](O)C2		active: 79.4 µM
Cc1nn(C)cc1CNc1nc(C)c(-c2ccn(CC3COc4ccccc4O3)n2)s1 (centres undefined)	inactive: -4.44%	
Nc1nc2ccc(OC(F)(F)F)cc2s1	inactive	
COc1ccc2c(c1)c(CC(=O)O)c(C)n2C(=O)c1ccc(Cl)cc1	inactive	
CCSc1nnc(C(C)NC(=O)c2ccc(OC)cc2)n1C (centres undefined)	inactive: 6.61%	
c1csc(CNc2ccnc(-c3ccc4c(c3)OCO4)n2)c1	inactive: -8.97%	
COc1cccc(-c2ccnc(-n3ncc(C(=O)N(C)CCc4ccccn4)c3C)n2)c1	inactive: 3.99%	
OC1(c2cccnc2)CCN(Cc2ccc3c(c2)CN(Cc2ccc(Cl)cc2)CCO3)CC1	inactive: 4.31%	
COc1ccccc1C(=O)N[C@@H]1c2ccccc2C2(CCN(Cc3c(O)cccc3OC)CC2)[C@H]1O	inactive: 22%	
COc1ccc2[nH]cc(CCNc3cc(-c4ccccc4C)ncn3)c2c1	inactive: -9.05%	
O=C(O)[C@@H](O)[C@H](O)[C@H](O)[C@@H](O)C(=O)O	inactive: 34.9%	
Cc1ncc(Cc2ccccc2)c(C2CCN(S(=O)(=O)C[C@]34CC[C@H](CC3=O)C4(C)C)CC2)n1	inactive: -15.6%	
COc1ccc(C(=O)N2CCC3(CCN(CC(C)C)CC3)CC2)cc1	inactive: 27.2%	
O=C(c1ccco1)N1CCC2(CCCN(Cc3ccncc3)C2)CC1	inactive: 11.4%	
O=C(O)c1cc(=O)cc(C(=O)O)[nH]1	inactive: -7.38% [at 75.8 µM]	
CC(=O)OC1C[C@@]2(C)C(c3ccoc3)OC(=O)C3O[C@@]32[C@]2(C)C(OC(C)=O)CC3C(C)(C)C(OC(C)=O)CC(OC(C)=O)[C@@]3(C)C12 (some centres undefined)	inactive: -2.27%	
COc1cc(-c2cc(C)c3c(OC)ccc(OC)c3n2)cc2c1OCCN(C(=O)C(C)c1n[nH]c(=O)c3ccccc13)C2 (centres undefined)	inactive: -2.01%	
